This note sets out measurements from paper PMC12136788.

The list shows a part of the results.

First the molecules themselves.
B1: chr16:47694578:47694579:+_ENSG00000102893_ENST00000566044|hu_hu|motif|central (ssRNA)
RNA: GGGAGUUCUACAGUCCGACGAUCUUCAGGAGCACUAGGGGUGCUGCUUUGCCGUUUGACUUUUGAAUGUUUGGGAGGUUCGGGUUCCUCAAAACUCUUAAAUUCUGGAAGCUCUUCUGUGUCACUGAUUCGUAGGAAAUCAAGCAACAGAGGAUUGAGCAUCA
B2: chrX:35795285:35795286:-_ENSMUSG00000016534_ENSMUST00000061755|mus_hu|FALSE|FALSE (ssRNA)
RNA: GGGAGUUCUACAGUCCGACGAUCAUUCAUCUGCCAUUUUGCAUAAAGGCAAGUGGCAUUUUCUGAAUCUGUCAAAUUAAGUUCCAAUGCAUAAGACCGCACAGCUCCCAGGACUAGGCAGACCAGAACGAGCCCUGAGCCCGGCAACAGAGGAUUGAGCAUCA
B3: chr17:64801638:64801639:+_ENSG00000154229_ENST00000413366|hu_mus|hu_hu_hu_mus_False|8_18 (ssRNA)
RNA: GGGAGUUCUACAGUCCGACGAUCUAUAUAUAUAUAUACAUAUGUACACAUAUAUAGUAAAACCCUAGUUAAACGUGUAAAGUAGCCAUUCAUUUUUAAAAUUACAUCUACAUUAAAAAAGUAAUCUAUCUGAUACAGUGCCAGCAACAGAGGAUUGAGCAUCA
B4: 109382212_109382332_5403_CDS_ENSG00000153201_ENST00000283195|human|control|control (ssRNA)
RNA: GGGAGUUCUACAGUCCGACGAUCGAACAUUCCUUCAAAUCCACUCUUUGGAGCCUUGCUUAUCUCCGAAGAGGCAGGUGUUGAAAUUGCAGUUGUUUGAUUUUGUUUACUUGGACACUGACAAGCAAUACAUUUGGUAGCACUCAACAGAGGAUUGAGCAUCA
B5: 49110423_49110543_198_3pUTR_ENSG00000129315_ENST00000261900|human|control|control (ssRNA)
RNA: GGGAGUUCUACAGUCCGACGAUCCACCGUUUGUUGUUGUUCUUCCUCUCUCCCUCCAUAGUGCUUCAACCAGAAGGCAGCGGCGAAGGCUGCAGGCACUUCCCAGCGUCACCUAAGAGGCGACCCACAUCCGCUGUGCGGGGGCAACAGAGGAUUGAGCAUCA
B6: 21556573_21556693_1470_3pUTR_ENSMUSG00000021820_ENSMUST00000100837|mouse|control|control (ssRNA)
RNA: GGGAGUUCUACAGUCCGACGAUCGGUCUCCUCUGACUGACUGGUGCGAGGCCGACCCUGCCCGUCGAUGUACUGAGUGAGCCGGAUAUAGGCGAUGCAAGCUGCGUCCUCCCCAAUCACGUGGACGUGAGGGUUUAGGAUGGUCAACAGAGGAUUGAGCAUCA
B7: chr4:33332862:33332863:-_ENSMUSG00000040128_ENSMUST00000049357|mus_hu|motif|central (ssRNA)
RNA: GGGAGUUCUACAGUCCGACGAUCAUAUACAAAACACCUGCAAUGUGGGCAGGGCAAAAUACAUACUUUCAUAACAAAACGGUAAUAUACCUCUCAAGUAUGAACAAUAUACACAUAAUACAUGGUAUACAGUAUUUACAAAAUCAACAGAGGAUUGAGCAUCA
B8: chr1:39494564:39494565:+_ENSG00000168653_ENST00000372967|hu_hu|hu_hu_hu_mus_True|8_58 (ssRNA)
RNA: GGGAGUUCUACAGUCCGACGAUCAUGCAUUCGCCUCAUCGUUUUGUACCGAAGCAAGCACUCUUCGAAGUCAUCGAAUUCUAUCUUGCACUCCUUUUUCGCCCGGGUCCCACCGAUCCCGUGUGCACAUUCUAUCCACUCUUUCAACAGAGGAUUGAGCAUCA
B9: chr1:157179356:157179357:-_ENSMUSG00000026469_ENSMUST00000027741|perfect_dup|FALSE|FALSE (ssRNA)
RNA: GGGAGUUCUACAGUCCGACGAUCCAGGAUUAGACUGAGGUAGAACUCACUGAAGGCCAGUUUAAGGUCUUUAAUAUUUCUAUGUUGGACACGUUCCUCAUGGGACAAGUGGAAGACUGGCUUUCUGCGUUGUCGCAGCGUAGUCAACAGAGGAUUGAGCAUCA
B10: chr2:42509997:42509998:+_ENSG00000143924_ENST00000318522|hu_mus|motif|central (ssRNA)
RNA: GGGAGUUCUACAGUCCGACGAUCUCGCUGAGUCCUCUCCUCAUAAUUAAACAGGACUACCACUGAGGCGAUAAAAUAAACGGUCUCCCCUGUGGGAAGCAGGUAUACAUUCGCUCUACAGUCCUUUCCUCGAUAACCGUAUACCAACAGAGGAUUGAGCAUCA
B11: 93300168_93386495_452_CDS_ENSG00000113391_ENST00000395965|human|control|control (ssRNA)
RNA: GGGAGUUCUACAGUCCGACGAUCAGAUACUUUUUUCAAAUUACAAUCCUUUUCCAGGAGCUCAUAUACAUACUUCGUGAUGAUCUCUCCUAGAGCCUCGUAUCUUUUCUGGUUCCAUCUGUGUAAAUCUUCCCGGUAGUUAAACAACAGAGGAUUGAGCAUCA
B12: 49338038_49338158_210_CDS_ENSG00000011260_ENST00000225298|human|control|control (ssRNA)
RNA: GGGAGUUCUACAGUCCGACGAUCCCGUCUCUCUUCCUCCGCCGCCGCGACUGCAAUCGCAGCGGCCGCCGCGCUCGGCCGGGCCGGCGGUUUCCGCUGGGAUGAAGGGGCAGGCUUUUGGGGAGGCCCGCCUGGCCCCGCUCCCAACAGAGGAUUGAGCAUCA
B13: 124053616_124053736_143_ncRNA_ENSMUSG00000049550_ENSMUST00000125340|mouse|control|control (ssRNA)
RNA: GGGAGUUCUACAGUCCGACGAUCACUUGUGACUUCGUCCCGGGUUCUCCCCAGCUCCUCGGCAAGUUUGACGUUCUCUUCCUGCAGUGCUGAAAGCUGCUGGGACUUCUGAGCUGCUGCCUGCUUUAGGGUUUCUCUGAAAGGCAACAGAGGAUUGAGCAUCA
B14: chr2:32526493:32526494:+_ENSG00000119820_ENST00000437765|hu_mus|FALSE|FALSE (ssRNA)
RNA: GGGAGUUCUACAGUCCGACGAUCAGAUCCAACCACCAAAAGUAUAGGGGCUAUUACAAUGAGAGGAAGUAAUGAAUAUCCUAUAACUCCAAGAACUUGGCCAUAUGCAACUUCUCCACCAAGAACUCUAGCCAGUAAGAAAAUCAACAGAGGAUUGAGCAUCA
B15: chr13:6597965:6597966:-_ENSMUSG00000021196_ENSMUST00000144053|mus_hu|FALSE|FALSE (ssRNA)
RNA: GGGAGUUCUACAGUCCGACGAUCCAGCUCCAGGAGUCCCAGGUAGGCCUCGAAUCCACCGAUGAUCAGCAGCGCGUUGAUGCUGUGCGUGCGCAUCUGUGUGGCGAUCUCUUCCAAGUACUUCCCCGGGAGAACGCGUUUUGUCAACAGAGGAUUGAGCAUCA
B16: chr17:45747064:45747065:+_ENSG00000108424_ENST00000290158|hu_hu|hu_hu_hu_mus_True|28_38 (ssRNA)
RNA: GGGAGUUCUACAGUCCGACGAUCGCCCACAGUCCACGCUGUUGUGUCUCGAACAACUACACUGGGGUCUUUCAUUAGUUCUAUUAGGGUGGGCAUAGCCUGUAUAACUAGUGGUUUCAGUUGAUUAGGCUCUGGUCCUUCCAACAACAGAGGAUUGAGCAUCA
B17: chr20:57485947:57485948:+_ENSG00000087460_ENST00000306090|hu_mus|FALSE|FALSE (ssRNA)
RNA: GGGAGUUCUACAGUCCGACGAUCGGGGUUUUUCAGAAUCACUGGGGGAAAAAGGAAAGGUUGCGGUGUUGAUCAUGCCCUAUGGUGGGUGACCAACUGCUUGUACAAUUACGUUUCACUCUUAAUUAAUUGUGCUUAAGGCUGCAACAGAGGAUUGAGCAUCA
B18: chr12:93804944:93804945:-_ENSG00000177889_ENST00000549833|hu_hu|FALSE|FALSE (ssRNA)
RNA: GGGAGUUCUACAGUCCGACGAUCUCAUGAAACGUACUUUAGGGGCUGCCAUUGGGUAUUCUUCUGGAAGGAAUAGUUCAAGUUUAAAAGUCCCUCCCUCAAAGGGGGAAUCCUGAGGGCCAGCAAUGACCACAUGAAAAUAACCAACAGAGGAUUGAGCAUCA
B19: chr22:32879901:32879902:+_ENSG00000100225_ENST00000397426|hu_mus|hu_hu_hu_mus_False|98_98 (ssRNA)
RNA: GGGAGUUCUACAGUCCGACGAUCCUCUUCCAUACUCGCAUUAUCUUGAAUUGACUCAGCUUCAACAUUUUGACUAGGCCCUUCCAUACUGUCAUCAGUCCAGGCAUCAAAUGGGGUGGCCUGUCCUUGGGAUGAAUCAGUCCCCAACAGAGGAUUGAGCAUCA
B20: chr1:58468927:58468928:-_ENSMUSG00000026034_ENSMUST00000148330|mus_mus|mus_mus_mus_hu_False|38_98 (ssRNA)
RNA: GGGAGUUCUACAGUCCGACGAUCAAUUACUGAAAAAUGAAAGAUGUACCUUAGCUAUGUACUUAAUGAACCAAAUUACCCAAACAAAAUAAACAUGUUUACAAAUUAAUGUUAAGAAUUUACAAAGCUGUACAAAAUAACUUACAACAGAGGAUUGAGCAUCA
B21: chr4:62795864:62795865:+_ENSMUSG00000028358_ENSMUST00000107415|mus_hu|FALSE|FALSE (ssRNA)
RNA: GGGAGUUCUACAGUCCGACGAUCCAGAGUCUAAAUCAAAUCUGAAGAAACAAAAUGAACCCCCAAACAAGGUAAAAAUUGCUAAAAUGUUAGGGAGAGAAAUUAUUAGGGAGUGGAGACAGUAUCUAUACUUCUCUGAAAAAUCAACAGAGGAUUGAGCAUCA
B22: chr7:65705475:65705476:+_ENSG00000169902_ENST00000304842|hu_hu|hu_hu_hu_mus_True|48_68 (ssRNA)
RNA: GGGAGUUCUACAGUCCGACGAUCUCUAUUCGGUGAUGGCACUCCAUGGCAUGCUGGCCCAGGUAAAACACAGUCACAGAACUAAUCACCAGACAUGCCAAGAGUAAGUUCUGCUUCAGCUUCCCAACCAUCUUGAUGUGGUUACAACAGAGGAUUGAGCAUCA

This assay deals with T1, UNK ZnF1-3 (human, UniProt Q9C0B0 31-174).
T1 sequence: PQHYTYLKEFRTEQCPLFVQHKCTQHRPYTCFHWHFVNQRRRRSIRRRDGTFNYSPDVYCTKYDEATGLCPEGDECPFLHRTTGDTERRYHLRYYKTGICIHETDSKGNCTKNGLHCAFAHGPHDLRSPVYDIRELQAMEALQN
Description: nsRBNS (natural sequence RNA bind-n-seq); RBNS binding buffer (assumed for nsRBNS): 25 mM Tris pH 7.5, 150 mM KCl, 3 mM MgCl2, 0.01% Triton X-100, 500 ug/ml BSA, 20 U/ml SUPERase-In, 4 C; UNK is unkempt and MSI1 is Musashi-1; names of the RNAs are library labels; protein concentration not given here; high values mean tight binding.
Consider B1, for which the binding signal came out at 0.849 enrichment R.

B2 showed a binding signal of 0.791 enrichment R.

With B3, the binding signal is 1.16 enrichment R.

Take B4: the binding signal stood at 0.718 enrichment R.

As for B5, the binding signal amounted to 0.96 enrichment R.

As for B6, the binding signal was 0.622 enrichment R.

Molecule B7 gave a binding signal of 0.804 enrichment R.

B8 yielded a binding signal of 0.586 enrichment R.

In turn, B9 had a binding signal of 0.819 enrichment R.

Consider B10, for which the binding signal came to 1.17 enrichment R.

Consider B11, for which the binding signal came to 0.876 enrichment R.

In turn, B12 came in with a binding signal of 0.861 enrichment R.

For B13, the binding signal was 0.519 enrichment R.

The molecule B14 displayed a binding signal of 1.9 enrichment R.

The molecule B15 yielded a binding signal of 0.637 enrichment R.

Regarding B16, the binding signal was determined as 0.54 enrichment R.

B17: the binding signal is 0.933 enrichment R.

Molecule B18 displayed a binding signal of 1.08 enrichment R.

Take B19: the binding signal came to 1.23 enrichment R.

B20 yielded a binding signal of 0.849 enrichment R.

B21 showed a binding signal of 1.56 enrichment R.

Turning to B22, the binding signal was 0.469 enrichment R.
